{
  "source": "PubChem BioAssay AID1508623",
  "about": "(National Center for Advancing Translational Sciences (NCATS), 2021)",
  "note": "About 450 (0.94%) of roughly 48,000 compounds were called active. Not shown: some 19% with an inconclusive outcome. Calls follow the shape of the dose curve; as a rule, active = well fitted inhibition curve with a large enough effect; inconclusive = small, poorly fitted or top-dose-only effect; inactive = no such curve, though single readings can be large or run the other way. The list shows a part of the results.",
  "data": [
    {"assay": "Primary qHTS for Identification of Small Molecule Inhibitors of Huntingtin Promoter Activity; also: nearly all actives have a fitted effect of over 50% in size", "details": "HEK293 HTT promoter firefly luciferase reporter (activity 0% = vehicle and -100% = no light), 24 h; series mostly up to 57.5 µM; activity change, negative = inhibition: at the top concentration", "procedure,_shortened": "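HEK293 Fluc reporter, 2,500 cells/well, 24 h pre-culture; cpds up to 57.5 uM final, 24 h 37 degrees C; Dual-Glo, 10 min RT; normalized vehicle = 0%, zero RLU = -100%.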", "values": [
      {"smiles": "NC(N)=NC(N)=NCCc1ccccc1", "activity change, negative = inhibition": "inactive"},
      {"smiles": "Cc1ccc(CNC(=O)c2ccc(Cn3c(=O)c4ccccc4n(CC(=O)Nc4ccc(C)cc4C)c3=O)cc2)cc1", "activity change, negative = inhibition": "inactive: -8.16%"},
      {"smiles": "CCOc1ccc(OCC)c(NS(=O)(=O)c2cc(-c3cc(C)no3)ccc2C)c1", "activity change, negative = inhibition": "inactive: -13.4%"},
      {"smiles": "CCOc1ccc(CCNC(=O)c2cn(CC)c3ccc(S(=O)(=O)N4CCc5ccccc5C4)cc3c2=O)cc1OCC", "activity change, negative = inhibition": "inactive: 9.16%"},
      {"smiles": "O=C(Nc1ccccc1-c1cn2c(CN3CCNCC3)csc2n1)c1cnc2ccccc2n1", "activity change, negative = inhibition": "inactive: -10.5%"},
      {"smiles": "COc1ccc(-c2cc(C(F)(F)F)nc(S(=O)(=O)CCCC(=O)Nc3cccc(O)c3)n2)cc1OC", "activity change, negative = inhibition": "inactive: -9.41%"},
      {"smiles": "CCC(=O)Oc1ccc(/C=C(\\C#N)c2nc3ccccc3[nH]2)cc1OC", "activity change, negative = inhibition": "inactive: 15.8%"},
      {"smiles": "CCc1ccc(NCc2cc3cc4c(cc3n(CC(=O)Nc3ccc(C)cc3)c2=O)OCO4)cc1", "activity change, negative = inhibition": "inactive: -24.5%"},
      {"smiles": "CCOc1ccc(NC(=O)C2CCCN(S(=O)(=O)c3cccc4nonc34)C2)cc1", "note": "(configuration not stated)", "activity change, negative = inhibition": "inactive: -17.8%"},
      {"smiles": "Cc1ccc(Nc2c(-c3cccs3)nc3nc(C)cc(C)n23)cc1", "activity change, negative = inhibition": "inactive: 46.4%"},
      {"smiles": "CC(=O)c1ccc(NC(=O)CSc2nnc3ccc(-c4ccc(Cl)cc4)nn23)cc1", "activity change, negative = inhibition": "inactive: -8.27%"},
      {"smiles": "Cc1oc2ncnc(N3CCCCC3)c2c1C(=O)N1CCN(c2cccc(C(F)(F)F)c2)CC1", "activity change, negative = inhibition": "inactive: -15.3%"},
      {"smiles": "CCOc1ccc(NC(=O)NCc2c(-n3cccc3)sc3c2CCCC3)cc1", "activity change, negative = inhibition": "inactive: -15.3%"},
      {"smiles": "CCN(CC)c1cc(C)c2cc(NC(=O)c3ccccc3OC)ccc2n1", "activity change, negative = inhibition": "inactive: -3.11%"},
      {"smiles": "Cc1cc(C)c(NC(=O)CSc2nc3nc(C)cc(C)n3n2)c(C)c1", "activity change, negative = inhibition": "inactive: 33.3%"},
      {"smiles": "Cc1cc(C)c(NC(=O)CSc2ccc(-c3sc(-c4ccccc4)nc3C)nn2)c(C)c1", "activity change, negative = inhibition": "inactive: -9.25%"},
      {"smiles": "CCCCn1c(SCC(=O)NCCCOC)nc2c(sc3ccccc32)c1=O", "activity change, negative = inhibition": "inactive: -8.88%"},
      {"smiles": "CCn1c(=O)c2sccc2n2c(CCCC(=O)N3CCN(c4cc(Cl)ccc4C)CC3)nnc12", "activity change, negative = inhibition": "inactive: -9.33%"},
      {"smiles": "COc1ccccc1N1CCN(c2ncccc2-c2nc(-c3ccc(Cl)cc3)no2)CC1", "activity change, negative = inhibition": "inactive: 21.7%"},
      {"smiles": "C[C@H](CCC(=O)O)[C@H]1CCC2C3C[C@H](O)[C@@H]4C[C@H](O)CC[C@]4(C)C3CC[C@@]21C", "note": "(some centres not stated)", "activity change, negative = inhibition": "inactive: -3.34%"},
      {"smiles": "CCCCOc1cccc(C2c3c(oc4ccccc4c3=O)C(=O)N2c2ccccn2)c1", "note": "(configuration not stated)", "activity change, negative = inhibition": "inactive: -5.41%"},
      {"smiles": "O=c1c2c(-c3ccccc3)ccnc2[nH]n1-c1ccccc1", "activity change, negative = inhibition": "inactive: 41.5%"},
      {"smiles": "CCCC1=Nc2cc(C(=O)NC(C)c3ccccc3)ccc2Sc2ccc(C)cc21", "note": "(configuration not stated)", "activity change, negative = inhibition": "inactive: -32.1%"},
      {"smiles": "Cc1nn(C(=O)c2c(F)cccc2F)c(C)c1S(=O)(=O)N1CCOCC1", "activity change, negative = inhibition": "inactive: -15.9%"},
      {"smiles": "COc1ccc(CCNC(=O)c2ccc3c(c2)N(Cc2ccccc2F)C(=O)c2ccccc2S3(=O)=O)cc1OC", "activity change, negative = inhibition": "inactive: 22.3%"},
      {"smiles": "O=C(NCCc1ccccc1)c1cc(S(=O)(=O)N2CCCCC2)c[nH]1", "activity change, negative = inhibition": "inactive: -23.6%"},
      {"smiles": "CCOC(=O)c1cnc2c(ccc3ccccc32)c1Nc1cccc(OC)c1", "activity change, negative = inhibition": "inactive: -32.3% [at 11.5 µM]"},
      {"smiles": "Cc1cccc(N2CCN(C(=O)c3cc4c(=O)oc5ccccc5c4s3)CC2)c1C", "activity change, negative = inhibition": "inactive: -4.03%"},
      {"smiles": "Cc1cc(C(F)F)n2nc(C(=O)Nc3c(C)cccc3C)nc2n1", "activity change, negative = inhibition": "inactive: -5.23%"},
      {"smiles": "CCOc1ccc(C(=O)c2cn(Cc3ccccc3OC)c3ccc(F)cc3c2=O)cc1", "activity change, negative = inhibition": "inactive: -4.51%"},
      {"smiles": "Oc1c(C(c2ccccc2Cl)N2CCCC2)sc2nc(-c3ccco3)nn12", "note": "(configuration not stated)", "activity change, negative = inhibition": "inactive: -27.8%"},
      {"smiles": "CC(=O)Nc1ccc(NC(=O)CSc2nc3ccccc3nc2N2CCOCC2)cc1", "activity change, negative = inhibition": "inactive: -11.9%"},
      {"smiles": "CCOc1ccc(N(CC(=O)NCc2ccccc2Cl)S(=O)(=O)c2c(C)[nH]c(=O)[nH]c2=O)cc1", "activity change, negative = inhibition": "inactive: 24.2% [at 11.5 µM]"},
      {"smiles": "COc1ccc(-n2c(CC3C(=O)N(C)c4ccc(C)cc43)nc3ccccc3c2=O)cc1", "note": "(configuration not stated)", "activity change, negative = inhibition": "inactive: -12.7%"},
      {"smiles": "COc1ccc(CCNc2ncnc3c2cnn3-c2ccc(C)cc2)cc1", "activity change, negative = inhibition": "inactive: -15.6%"},
      {"smiles": "O=C(O)[C@H](O)c1ccccc1", "activity change, negative = inhibition": "inactive: 0.475%"},
      {"smiles": "Fc1ccc(CN2CCc3nc(Nc4ccccc4)ncc3C2)cc1F", "activity change, negative = inhibition": "inactive: -30%"},
      {"smiles": "COc1ccc(-c2noc(CNC(=O)c3ccco3)n2)cc1", "activity change, negative = inhibition": "inactive: -4.67%"},
      {"smiles": "Cc1ccc(CNC(=O)CSc2cc(C)[nH]c(=O)n2)cc1", "activity change, negative = inhibition": "inactive: -9.39%"},
      {"smiles": "CC1CCN(C(=O)CSc2nc(-c3ccccc3)no2)CC1", "activity change, negative = inhibition": "inactive: 21.6%"},
      {"smiles": "COc1cc(C(=O)N2CCC(c3nc4ccccc4o3)CC2)cc(OC)c1OC", "activity change, negative = inhibition": "inactive: 0.147%"},
      {"smiles": "COc1ccc(C(c2c(O)cc(C)n(Cc3ccco3)c2=O)N2CCCCC2)cc1OC", "note": "(configuration not stated)", "activity change, negative = inhibition": "inactive: -4.5%"},
      {"smiles": "C(=C\\c1ccccc1)/CN1CCN(C(c2ccccc2)c2ccccc2)CC1", "activity change, negative = inhibition": "inactive: 0.915%"},
      {"smiles": "CCN(CC)CC(=O)Oc1ccc(NC(C)=O)cc1", "activity change, negative = inhibition": "inactive: -0.0227%"},
      {"smiles": "COc1cc(Cl)c(C)cc1NC(=O)c1ccc2c(Cl)c3c(nc2c1)CCC3", "activity change, negative = inhibition": "inactive: -2.89%"},
      {"smiles": "CCOc1cccc(CC(=O)N2CCc3c([nH]c4ccccc34)C2c2ccc(Cl)cc2)c1OCC", "note": "(configuration not stated)", "activity change, negative = inhibition": "inactive: -26.3%"},
      {"smiles": "CCOc1ccccc1NC(=O)c1c(NC(=O)c2ccccc2)sc2c1CCCC2", "activity change, negative = inhibition": "inactive: -25.9%"},
      {"smiles": "CCOc1ccccc1CNC(=O)c1cnc2sc(N3CCCCCC3)nn2c1=O", "activity change, negative = inhibition": "inactive: -16.4%"},
      {"smiles": "CCc1ccc(Oc2c(C(F)(F)F)oc3c(CN4CCN(C)CC4)c(O)ccc3c2=O)cc1", "activity change, negative = inhibition": "inactive: -21.3%"},
      {"smiles": "O=C(Cn1cc(SCc2cccc(Cl)c2)c2ccccc21)N1CCCCCC1", "activity change, negative = inhibition": "inactive: -13.9%"},
      {"smiles": "COc1ccc(-n2ccn(CC(=O)NCCc3ccccc3)c(=O)c2=O)cc1OC", "activity change, negative = inhibition": "inactive: -16.2%"},
      {"smiles": "COc1ccccc1CN(Cc1ccco1)c1cnc(S(C)(=O)=O)nc1C(=O)Nc1cc(C)ccc1C", "activity change, negative = inhibition": "inactive: -19.9%"},
      {"smiles": "COc1cccc(CNC(=O)Cn2ncc3c4ccccc4n(Cc4ccccc4)c3c2=O)c1", "activity change, negative = inhibition": "inactive: 3.07%"},
      {"smiles": "COc1cccc(C(=O)NCc2nc(-c3ccccc3)no2)c1OC", "activity change, negative = inhibition": "inactive: -15%"},
      {"smiles": "O=S(=O)(O)c1ccc(O)cc1", "activity change, negative = inhibition": "inactive: 9.63%"},
      {"smiles": "Cc1cccc(NC(=O)CCc2c(C)nc3nc(CNC(=O)c4cccc(F)c4)nn3c2C)c1", "activity change, negative = inhibition": "inactive: 19.2%"},
      {"smiles": "COc1ccc(-c2noc(CSc3nnc(-c4ccncc4)n3-c3ccc(C)cc3)n2)cc1OC", "activity change, negative = inhibition": "inactive: -3.4%"},
      {"smiles": "O=C(Cn1c(=O)n(Cc2ccc3c(c2)OCO3)c(=O)c2oc3ccccc3c21)Nc1ccc(F)cc1", "activity change, negative = inhibition": "inactive: -9.12%"},
      {"smiles": "CCn1cc(CNC(=O)c2cc(-c3ccc(C)c(C)c3)nc3ccccc23)c(C)n1", "activity change, negative = inhibition": "inactive: -14%"},
      {"smiles": "CC1CCCCN1C(=O)Cn1c(SCC(=O)N(C)c2ccccc2)nc2ccccc21", "note": "(configuration not stated)", "activity change, negative = inhibition": "inactive: 2.55%"},
      {"smiles": "Cc1ccc(NC(=O)c2ccc(=O)n(CC(=O)Nc3cccc(C)c3)n2)cc1", "activity change, negative = inhibition": "inactive: -17.6%"},
      {"smiles": "O=C(C1CCCCC1)N1CC(=O)N2CCc3ccccc3C2C1", "note": "(configuration not stated)", "activity change, negative = inhibition": "inactive"}
    ]}
  ]
}
